Source: PubChem BioAssay AID686979 (National Center for Advancing Translational Sciences (NCATS), 2013)
Where “and” joins values, the source holds several entries; their conditions need not be identical. Equal entries are not always repeated. Hit rate of the full screen: of about 420,000 compounds, about 50,000 (12%) were called active. Inconclusive means that the source gave no clear call. Such entries were picked first, then a sample of the others. Calls follow the shape of the dose curve; as a rule, active = well fitted inhibition curve with a large enough effect; inconclusive = small, poorly fitted or top-dose-only effect; inactive = flat fitted curve, though single readings scatter. A potency beside an inconclusive call is a rough fit, not a confirmed value.

Assay: qHTS for Inhibitors of human tyrosyl-DNA phosphodiesterase 1 (TDP1): qHTS in cells in presence of CPT; also: nearly all actives have a fitted effect of over 55% in size
Conditions: chicken DT40 Tdp1-/-;hTDP1 cells + 20 nM CPT, ATP luminescence, 48 h; activity change, negative = growth inhibition: at 46.2 µM (top of the series) unless noted
Method in brief: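 Chicken DT40 Tdp1-/- cells stably complemented with human TDP1 were seeded at 400 cells/well in medium containing 20 nM camptothecin, exposed to pin-transferred compounds, and grown at 37 °C for at least 48 hr. Viability was read as ATP luminescence.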
% is scaled to controls: 0 for no effect and ±100 for the full control effect; potency is read from the fitted curve at half-maximal effect; tags tell the direction and shape of the fitted curve.

Row | SMILES | activity change, negative = growth inhibition | Potency
1 | Cc1ccc2nc(SCC(=O)Nc3cc(C)on3)[nH]c2c1 | inconclusive: -24.3% [inhibitor] | 
2 | Cn1c(CCNC(=O)c2ccco2)nc2cc(NC(=O)c3ccco3)ccc21 |  | inconclusive: 29.1 µM [inhibitor, single point]
3 | CC(C)CCn1c(CN2CCN(Cc3ccccc3)CC2)nc2c1c(=O)n(C)c(=O)n2C |  | inconclusive: 23.1 µM [inhibitor, single point]
4 | CC(C)(C)Nc1nc(Cl)nc(NCc2ccccc2)n1 |  | active: 18.4 µM
5 | CCOCC(=O)Nc1ccc(C)c(Cl)c1 |  | inconclusive: 20.6 µM [inhibitor, single point]
6 | CCOc1ccc(NC(=S)N2CCC(c3nc4ccccc4[nH]3)CC2)cc1 |  | inactive
7 | COc1ccc(C(=O)NNC(=O)COc2ccc(Cl)cc2C)cc1S(=O)(=O)N1CCOCC1 |  | inconclusive: 29.1 µM [inhibitor, single point]
8 | N#Cc1c(-c2ccccc2)cc2nc3ccccc3n2c1N |  | inactive
9 | COc1cc(NC(=O)c2cccc(C)c2)ccc1NC(=O)c1cc2ccccc2o1 |  | inconclusive: 3.26 µM [inhibitor, partial curve, poor fit]
10 | O=C(NCC1Cc2cccc(-c3cnccn3)c2O1)c1ccc(F)c(Cl)c1 (stereo unspecified) |  | inactive
11 | Fc1ccc(-c2ccc3c(c2)C2CC3CCN2)cc1 (stereo unspecified) |  | active: 18.4 µM
12 | O=C1NC(=S)N/C1=C/c1cccc2ccccc12 |  | inconclusive: 29.1 µM [inhibitor, single point]
13 | COCCCNc1nc(SCc2ccccc2)nc2sc3c(c12)CCC3 |  | inconclusive: 29.1 µM [inhibitor, single point]
14 | CN(C)S(=O)(=O)c1cccc(NC(=O)c2ccc(N3CCOCC3)c([N+](=O)[O-])c2)c1 |  | active: 16.4 µM
15 | CCc1ccc(Nc2ncnc3nc[nH]c23)cc1 |  | inactive
16 | CN(C)S(=O)(=O)c1cccc(NC(=O)COC(=O)/C=C/c2ccc3c(c2)OCO3)c1 |  | inconclusive: 29.1 µM [inhibitor, single point]
17 | O=S(=O)(Nc1ccc(-c2ccc(NS(=O)(=O)c3ccccc3)cc2)cc1)c1ccccc1 |  | inconclusive: 29.1 µM [inhibitor, single point]
18 | COc1ccccc1NS(=O)(=O)c1ccc(NC(=O)Cc2cccs2)cc1 |  | inconclusive: 32.6 µM [inhibitor, single point]
19 | CCc1nnc2c(Nc3ccccc3Br)nc3ccccc3n12 |  | inactive
20 | Cc1ccc(Nc2nc(C)cc(C)c2C(N)=O)cc1 |  | inconclusive: 8.2 µM [inhibitor, partial curve]
21 | Cc1c(Cl)cnc(NC(=O)COC(=O)Cc2coc3ccc4ccccc4c23)c1Cl |  | inactive
22 | CCN(CC)CCP(=O)(c1ccccc1)c1ccccc1 |  | inactive
23 | COC(=O)c1cc(C)nc(Nc2nc(C(N)Cc3ccc(F)cc3)cs2)n1 (stereo unspecified) | inconclusive: -32.7% [inhibitor] | 

Row | SMILES | activity change, negative = growth inhibition | Potency
24 | COc1ccccc1N1CCN(C(=O)CNS(=O)(=O)c2ccc(Br)s2)CC1 |  | inconclusive: 18.4 µM [inhibitor, single point] and inconclusive: 29.1 µM [inhibitor, single point]
25 | COc1cc(CNCCCN2CCOCC2)cc(Cl)c1OCC(=O)NC(C)(C)C |  | inconclusive: 16.4 µM [inhibitor, single point]
26 | Cc1cc(N=NC(=O)c2ccccc2)ccc1O |  | inconclusive: 25.9 µM [inhibitor, single point]
27 | COc1ccc2sc(N(CCCN(C)C)C(=O)c3ccc(S(=O)(=O)N4CCCC4)cc3)nc2c1 |  | inactive
28 | O=C(NCc1ccc(F)cc1)C(=O)NCC1OCCCN1S(=O)(=O)c1cccs1 (stereo unspecified) |  | inactive
29 | O=[N+]([O-])c1cccc(OCCN2CCC(Cc3ccccc3)CC2)c1 |  | inconclusive: 20.6 µM [inhibitor, single point]
30 | COc1cc(C(=O)OCC(=O)N2CCNC2=O)cc(Cl)c1OC |  | inactive
31 | CCCn1cc(S(=O)(=O)c2cccc(Cl)c2)c(=O)c2cc(F)c(N3CCCC3)cc21 |  | inconclusive: 20.6 µM [inhibitor, single point]
32 | O=C(OCC(=O)N1CCOCC1)c1cccc(S(=O)(=O)N2CCCc3ccccc32)c1 |  | inactive
33 | CCC(C)N1C(=S)SC(C)(C)C1N(O)C(=O)NC1CCCCC1 (stereo unspecified) |  | inactive
34 | CN(CC(=O)Nc1ccccc1Sc1ccccc1)C1CCCCC1 |  | inconclusive: 25.9 µM [inhibitor, single point]
35 | CCCOP(=O)(c1ccc(N(C)C)cc1)C(O)c1ccc(Cl)cc1 (stereo unspecified) |  | inactive
36 | COc1ccccc1N1CCN(/N=C/C(Cl)=C/c2ccccc2)CC1 |  | active: 25.9 µM
37 | Cc1cc(Cl)ccc1OCC(=O)N(Cc1ccc(N(C)C)cc1)C1CCS(=O)(=O)C1 (stereo unspecified) |  | inconclusive: 29.1 µM [inhibitor, single point]
38 | Cc1ccc(NS(=O)(=O)c2cc(C(=O)NCc3ccccn3)ccc2Cl)cc1C |  | inactive
39 | Cc1cccc(C(C)C)c1NC(=O)c1ccc2c(c1)CCCN2S(C)(=O)=O |  | inconclusive: 7.31 µM [inhibitor, partial curve]
40 | CCc1cc(C(=O)N(Cc2ccccc2)c2c(N)n(CCOC)c(=O)[nH]c2=O)sc1C |  | inactive
41 | CN(CCc1ccccc1)C(=O)c1ccc(NC(=O)Cc2ccc(NC(=O)C3CCN(C(=O)CCc4ccccc4)CC3)cc2)cc1 |  | active: 14.6 µM
42 | Cc1cccc(C(=O)N=C2SC3CS(=O)(=O)CC3N2c2ccccc2)c1 (stereo unspecified) |  | inactive
43 | COc1ccc(C(=O)N/N=C(\C)c2ccc3c(c2)C2C=CCC2C(c2ccccc2)N3)cc1 (stereo unspecified) |  | inconclusive: 25.9 µM [inhibitor, single point]
44 | CCOc1ccc2cc(S(=O)(=O)N3CCN(C)CC3)ccc2c1 |  | inconclusive: 20.6 µM [inhibitor, single point]
45 | COc1ccc(OCCN2CCC(C(=O)NC(c3ccc(Cl)cc3)c3cccnc3)CC2)cc1 (stereo unspecified) |  | inconclusive: 16.4 µM [inhibitor, single point]
46 | COc1ccc(-c2ccc(OC(=O)NC3CCS(=O)(=O)C3)cc2)cc1 (stereo unspecified) |  | inconclusive: 20.6 µM [inhibitor, single point]
